Binding signal data for 32 sequences are collected here from publication PMC12820563, “FoxP3 forms a head-to-head dimer in vivo and stabilizes its multimerization on adjacent microsatellites”.

The list shows a part of the results.

This experiment deals with T1, MBP-FoxP1dN (Mus musculus, UniProt P58462 326-579).
T1 sequence: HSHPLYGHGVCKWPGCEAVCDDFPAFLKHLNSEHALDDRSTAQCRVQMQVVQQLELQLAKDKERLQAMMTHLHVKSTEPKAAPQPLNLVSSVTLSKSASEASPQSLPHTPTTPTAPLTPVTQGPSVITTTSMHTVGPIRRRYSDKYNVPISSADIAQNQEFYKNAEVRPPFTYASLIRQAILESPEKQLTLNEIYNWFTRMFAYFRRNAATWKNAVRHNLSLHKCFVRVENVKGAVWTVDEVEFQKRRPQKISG
Put plainly: PD-seq (MBP pull-down with sequencing); 20 mM Tris-HCl pH 7.5, 100 mM NaCl, 1.5 mM MgCl2, 0.4 uM protein, 0.1 uM dsDNA library, 30 min, room temperature, amylose pull-down; high values mean tight binding. The following applies: protein: recombinant; tags: His6-MBP; chain copies: 2; dsDNA, one strand shown. In a few lines: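 A degenerate double-stranded DNA library, filled in with Klenow, was added at 0.1 µM to 0.4 µM His6-MBP-tagged mouse FoxP3 or FoxP1 fragment lacking the N-terminus, expressed in E. coli. Incubation lasted 30 min at room temperature in Tris pH 7.5 buffer with NaCl and MgCl2, after which complexes were collected on amylose resin, washed three times, digested with proteinase K to free the DNA, barcoded by PCR and sequenced by Illumina. Binding is the pooled-replicate reads-per-million enrichment of pull-down over input.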
For “GATGATTGTTCTCCCAGCTGATGAATTCCTAGTCTCGAGTAAACAAATTTTCCTAATCTTTCTGTTCAAGCGCCATCTAC”, the binding signal was 0.762 RPM ratio (pull-down/input). Under “GATGATTGTTCTCCCAGCTGATGAATTGTAGATTTCGAGTAAACAAATTTTCCTAATCTTTCTGTTCAAGCGCCATCTAC” stands 1.01 RPM ratio (pull-down/input); under “GATGATTGTTCTCCCAGCTGATGAATTACCACGTTCGAGTAAACAAATTTTCCTAATCTTTCTGTTCAAGCGCCATCTAC”, 1.02 RPM ratio (pull-down/input). As to “GATGATTGTTCTCCCAGCTGATGAATTCGGAGCTTCGAGTAAACAAATTTTCCTAATCTTTCTGTTCAAGCGCCATCTAC”, the binding signal is 0.821 RPM ratio (pull-down/input). Under “GATGATTGTTCTCCCAGCTGATGAATTCTCGAATTCGAGTAAACAAATTTTCCTAATCTTTCTGTTCAAGCGCCATCTAC” stands 0.917 RPM ratio (pull-down/input).

As for “GATGATTGTTCTCCCAGCTGATGAATTGTCTCGCTCGAGTAAACAAATTTTCCTAATCTTTCTGTTCAAGCGCCATCTAC”, the binding signal is 0.914 RPM ratio (pull-down/input).

On to “GATGATTGTTCTCCCAGCTGATGAATTGTAGTGGTCGAGTAAACAAATTTTCCTAATCTTTCTGTTCAAGCGCCATCTAC”, for which the binding signal is 1.12 RPM ratio (pull-down/input).

In the case of “GATGATTGTTCTCCCAGCTGATGAATTTTTATCATCGAGTAAACAAATTTTCCTAATCTTTCTGTTCAAGCGCCATCTAC”, the binding signal is 1.36 RPM ratio (pull-down/input). As for “GATGATTGTTCTCCCAGCTGATGAATTACAAACATCGAGTAAACAAATTTTCCTAATCTTTCTGTTCAAGCGCCATCTAC”, the figure is 2.67 RPM ratio (pull-down/input). Consider “GATGATTGTTCTCCCAGCTGATGAATTTTCGGAGTCGAGTAAACAAATTTTCCTAATCTTTCTGTTCAAGCGCCATCTAC”, for which the binding signal was 0.904 RPM ratio (pull-down/input). Under “GATGATTGTTCTCCCAGCTGATGAATTCTACGACTCGAGTAAACAAATTTTCCTAATCTTTCTGTTCAAGCGCCATCTAC” stands 0.859 RPM ratio (pull-down/input); under “GATGATTGTTCTCCCAGCTGATGAATTGTAATCGTCGAGTAAACAAATTTTCCTAATCTTTCTGTTCAAGCGCCATCTAC”, 1.18 RPM ratio (pull-down/input). Take “GATGATTGTTCTCCCAGCTGATGAATTACGAACATCGAGTAAACAAATTTTCCTAATCTTTCTGTTCAAGCGCCATCTAC”: the binding signal is 1.27 RPM ratio (pull-down/input).

On to “GATGATTGTTCTCCCAGCTGATGAATTTTGGAGCTCGAGTAAACAAATTTTCCTAATCTTTCTGTTCAAGCGCCATCTAC”, for which the binding signal was 0.768 RPM ratio (pull-down/input). As for “GATGATTGTTCTCCCAGCTGATGAATTCCCTCAGTCGAGTAAACAAATTTTCCTAATCTTTCTGTTCAAGCGCCATCTAC”, the binding signal is 0.82 RPM ratio (pull-down/input). As for “GATGATTGTTCTCCCAGCTGATGAATTCTATCAGTCGAGTAAACAAATTTTCCTAATCTTTCTGTTCAAGCGCCATCTAC”, the figure is 0.867 RPM ratio (pull-down/input); as for “GATGATTGTTCTCCCAGCTGATGAATTTAAGCTATCGAGTAAACAAATTTTCCTAATCTTTCTGTTCAAGCGCCATCTAC”, 0.877 RPM ratio (pull-down/input). Under “GATGATTGTTCTCCCAGCTGATGAATTCGTGCCTTCGAGTAAACAAATTTTCCTAATCTTTCTGTTCAAGCGCCATCTAC” stands 0.882 RPM ratio (pull-down/input); under “GATGATTGTTCTCCCAGCTGATGAATTTACCGCTTCGAGTAAACAAATTTTCCTAATCTTTCTGTTCAAGCGCCATCTAC”, 1.14 RPM ratio (pull-down/input). Regarding “GATGATTGTTCTCCCAGCTGATGAATTCCTGAAATCGAGTAAACAAATTTTCCTAATCTTTCTGTTCAAGCGCCATCTAC”, the binding signal was 0.973 RPM ratio (pull-down/input). Under “GATGATTGTTCTCCCAGCTGATGAATTCAGGACGTCGAGTAAACAAATTTTCCTAATCTTTCTGTTCAAGCGCCATCTAC” stands 0.801 RPM ratio (pull-down/input). Under “GATGATTGTTCTCCCAGCTGATGAATTACGTCAATCGAGTAAACAAATTTTCCTAATCTTTCTGTTCAAGCGCCATCTAC” stands 1.26 RPM ratio (pull-down/input); under “GATGATTGTTCTCCCAGCTGATGAATTAAGTGCCTCGAGTAAACAAATTTTCCTAATCTTTCTGTTCAAGCGCCATCTAC”, 0.989 RPM ratio (pull-down/input).

In the case of “GATGATTGTTCTCCCAGCTGATGAATTCTTCCTGTCGAGTAAACAAATTTTCCTAATCTTTCTGTTCAAGCGCCATCTAC”, the binding signal is 0.782 RPM ratio (pull-down/input). Take “GATGATTGTTCTCCCAGCTGATGAATTATTGCACTCGAGTAAACAAATTTTCCTAATCTTTCTGTTCAAGCGCCATCTAC”: the binding signal was 1.2 RPM ratio (pull-down/input). Take “GATGATTGTTCTCCCAGCTGATGAATTAGATAGATCGAGTAAACAAATTTTCCTAATCTTTCTGTTCAAGCGCCATCTAC”: the binding signal is 0.882 RPM ratio (pull-down/input). With “GATGATTGTTCTCCCAGCTGATGAATTGCAACAGTCGAGTAAACAAATTTTCCTAATCTTTCTGTTCAAGCGCCATCTAC”, the binding signal was 1.42 RPM ratio (pull-down/input). Under “GATGATTGTTCTCCCAGCTGATGAATTTAGAACATCGAGTAAACAAATTTTCCTAATCTTTCTGTTCAAGCGCCATCTAC” stands 1.2 RPM ratio (pull-down/input); under “GATGATTGTTCTCCCAGCTGATGAATTTCGAGTTTCGAGTAAACAAATTTTCCTAATCTTTCTGTTCAAGCGCCATCTAC”, 0.851 RPM ratio (pull-down/input); under “GATGATTGTTCTCCCAGCTGATGAATTAAGCTTCTCGAGTAAACAAATTTTCCTAATCTTTCTGTTCAAGCGCCATCTAC”, 0.873 RPM ratio (pull-down/input). Regarding “GATGATTGTTCTCCCAGCTGATGAATTACTCGAATCGAGTAAACAAATTTTCCTAATCTTTCTGTTCAAGCGCCATCTAC”, the binding signal is 1.11 RPM ratio (pull-down/input). Under “GATGATTGTTCTCCCAGCTGATGAATTCGACTCCTCGAGTAAACAAATTTTCCTAATCTTTCTGTTCAAGCGCCATCTAC” stands 0.808 RPM ratio (pull-down/input).
